From PubChem BioAssay AID504832 (National Center for Advancing Translational Sciences (NCATS), 2011)
The whole screen tested about 310,000 compounds, of which about 18,000 (5.8%) were called active. Inconclusive means that the source gave no clear call. Such entries were picked first, then a sample of the others. Calls follow the shape of the dose curve; as a rule, active = well fitted inhibition curve with a large enough effect; inconclusive = small, poorly fitted or top-dose-only effect, or another doubt; inactive = no such curve, though single readings can be large or run the other way. No potency is given beside an inconclusive call; the fits are too rough.

Experiment: Primary qHTS for delayed death inhibitors of the malarial parasite plastid, 48 hour incubation
Conditions: P. falciparum luciferase growth in erythrocytes; series mostly up to 28.7 µM; activity change, negative = inhibition: at the top concentration
Outline: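 First compound was added to culture medium, then infected red cells at 0.1% parasitemia and 2% hematocrit (final). After incubation at 37 C under 5% CO2, luciferase detection reagent was dispensed and light output recorded.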
% is scaled to controls: 0 for no effect and ±100 for the full control effect; potency is read from the fitted curve at half-maximal effect; tags tell the direction and shape of the fitted curve.

Row | SMILES | Potency | activity change, negative = inhibition
1 | COc1ccnc(Oc2ccc(F)cc2)c1C(=O)N/C=N/OCc1cccc(F)c1 | inconclusive [inhibitor, partial curve, poor fit] | –
2 | CC1(OC(=O)C2CCCC2)C(=O)C=C2C=C(c3ccsc3)N(CCc3ccccn3)C=C2C1=O (configuration not stated) | inconclusive [inhibitor, single point] | –
3 | O=C1C=CC(=O)C(C2=C3C(=O)N(CCc4ccccc4)CC(=O)N3CCC2)=C1 | – | inactive: -25.8%
4 | COc1cc(C(=O)NCC(c2ccco2)N2CCCC2)ccc1OCc1c(C)noc1C (configuration not stated) | active: 11.7 µM | –
5 | Cc1ccc2sc(N3CCN(C(=O)c4ccc([N+](=O)[O-])o4)CC3)nc2c1C | active: 0.37 µM | –
6 | O=C(Cn1ccccc1=O)Nc1ccc(Cl)c(S(=O)(=O)N2CCCCC2)c1 | inconclusive [inhibitor, single point] | –
7 | O=C(c1ccccc1F)N1CCN(S(=O)(=O)c2ccc(S(=O)(=O)N3CCCCCC3)cc2)CC1 | active: 11.7 µM | –
8 | COc1ccccc1NC(=O)c1ccc(N2CC3CC(C2)c2cccc(=O)n2C3)c(NC(=O)c2cccnc2)c1 (configuration not stated) | inconclusive [inhibitor, partial curve] | –
9 | Cc1ccc(C(=O)NCc2ccccn2)cc1S(=O)(=O)N1CCCCC1 | inconclusive [inhibitor, single point] | –
10 | O=C1CC2(CCN(C(=O)COc3ccc(Cl)cc3)CC2)Oc2ccccc21 | inconclusive [inhibitor, single point] | –
11 | COc1cccc(-n2c(=S)[nH]c3c(oc4ccccc43)c2=O)c1 | inconclusive [inhibitor, full curve, poor fit] | –
12 | Cn1c(CN2CCOCC2)nc2cc(NC(=O)COc3ccc([N+](=O)[O-])cc3)ccc21 | inconclusive [inhibitor, partial curve, poor fit] | –
13 | O=C(COC(=O)c1cc([N+](=O)[O-])ccc1N1CCOCC1)NCCc1ccccc1 | – | inactive: 50.1%
14 | COc1ccccc1-c1oc2ccccc2c1-c1ccc2cc[nH]c2c1 | active: 2.08 µM | –
15 | Cc1cccc(C(C#N)c2ccc(Cl)nn2)c1 (configuration not stated) | inconclusive [inhibitor, single point] | –
16 | Cc1ccc(S(=O)(=O)N2CCN(CCOc3ccccc3)CC2)cc1 | inconclusive [inhibitor, partial curve, poor fit] | –
17 | CC(=O)Nc1sc2c(c1C(c1cccc(F)c1)N1CCN(CCO)CC1)CCCC2 (configuration not stated) | inconclusive [inhibitor, partial curve, poor fit] | –
18 | Cc1ccc(NC(=O)COC(=O)c2ccnn2C)cc1 | – | inactive: 27.5%
19 | O=C(Cn1c(=O)oc2ccccc21)NCCc1ccccc1Cl | – | inactive: 15.1%
20 | Cc1ccccc1/C=C1\Sc2ccc(C(=O)N3CCN(c4ccccn4)CC3)cc2N(C)C1=O | inconclusive [inhibitor, full curve, poor fit] | –
21 | Cc1onc(-c2ccccc2)c1-c1nnc(CN2CCN(S(=O)(=O)c3ccccc3F)CC2)o1 | inconclusive [inhibitor, single point] | –
22 | COc1ccccc1CNC(=O)C(=O)NCCC1CCCCN1S(=O)(=O)c1ccc(C)cc1 (configuration not stated) | active: 11.7 µM | –
23 | CCOP(=O)(OCC)c1nc(-c2cccc3ccccc23)oc1N1CCOCC1 | inconclusive [inhibitor, single point] | –

Row | SMILES | Potency | activity change, negative = inhibition
24 | CC(C)CCOP(=O)(c1ccc(N(C)C)cc1)C(O)c1ccc(N(C)C)cc1 (configuration not stated) | inconclusive [inhibitor, partial curve] | –
25 | COc1ccc(OCC(O)Cn2ccnc2C)cc1 (configuration not stated) | – | inactive: 9.3%
26 | C#Cc1ccc(CN2CCN(CCc3ccccc3)C(CCO)C2)cc1 (configuration not stated) | inconclusive [inhibitor, single point] | –
27 | CC(=O)Nc1nonc1NC(=O)c1ccc(C(C)(C)C)cc1 | inconclusive [inhibitor, single point] | –
28 | Cc1cc(NC(=O)C(C)SCC(=O)OC(C)C(=O)Nc2ccc(F)cc2Cl)no1 (configuration not stated) | inconclusive [inhibitor, partial curve, poor fit] | –
29 | Cc1ccc(OCC(O)CN2CCOCC2)c(C)c1 (configuration not stated) | – | inactive: 18.1%
30 | Cc1cnc(CN2CCc3c([nH]c4ccccc34)C2C2CCCCC2)[nH]1 (configuration not stated) | – | inactive: -1.5%
31 | CCCNC(=O)c1ccc(N2CCC3(CC2)CC(c2cccc(Br)c2)=NO3)c(NC(=O)c2cccc(OC)c2)c1 | inconclusive [inhibitor, partial curve, poor fit] | –
32 | Cc1ccc(C2(c3ccccc3)NC(=O)N(CC(=O)NCc3ccco3)C2=O)cc1C (configuration not stated) | inconclusive [inhibitor, single point] | –
33 | COc1ccc(-c2cc(C(=O)N3CCN(c4ccccc4O)CC3)c3ccccc3n2)cc1OC | active: 2.08 µM | –
34 | CCOc1nc(-c2ccccc2)c2cc(C)ccc2n1 | inconclusive [inhibitor, partial curve, poor fit] | –
35 | CCOCCn1c(=O)c2c(nc3n2CC(C)CN3CCc2ccccc2)n(C)c1=O (configuration not stated) | – | inactive: -13.6%
36 | Cn1c(N2CCCCC2)cc(=O)n(C)c1=O | inconclusive [inhibitor, full curve, poor fit] | –
37 | COc1cccc(CNC(=O)CCC2CCCN(C(=O)c3cccc4c(C)c(C)[nH]c34)C2)c1 (configuration not stated) | active: 11.7 µM | –
38 | O=C1CC(N2CCN(S(=O)(=O)c3ccccc3F)CC2)C(=O)N1c1ccccc1Cl (configuration not stated) | inconclusive [inhibitor, single point] | –
39 | CC(=O)c1ccc(N2CCN(S(=O)(=O)c3c(C)[nH]c(C)c3C(=O)N3CCCCC3)CC2)cc1 | inconclusive [inhibitor, single point] | –
40 | O=C(COC(=O)c1cccs1)NCc1ccc2c(c1)OCO2 | – | inactive: 5.01%
41 | COc1ccccc1-n1c(-c2ccccc2)c[nH]c1=S | – | inactive: 356%
42 | Cc1ccsc1/C=C1\SC(N2CC(C)OC(C)C2)=NC1=O (configuration not stated) | inconclusive [inhibitor, single point] | –
43 | O=C(NC1CCC(O)CC1)c1cc(-c2ccco2)nc2ccccc12 (configuration not stated) | inconclusive [inhibitor, single point] | –
44 | O=C(C1CCC(CNS(=O)(=O)c2cccs2)CC1)N1CCN(c2ccc(Cl)cc2)CC1 (configuration not stated) | – | inactive: -17.9%
45 | O=C(NN/C(=N/S(=O)(=O)c1ccc(Cl)cc1)c1ccccc1)c1ccc(O)cc1 | – | inactive: 197%
46 | O=C(O)c1cc(N/N=C/c2cccc3ccccc23)ccc1Cl | – | inactive: 215%

Row | SMILES | Potency | activity change, negative = inhibition
47 | CCN1CCn2c3c(c4cc(Cl)ccc42)CCCC31 (configuration not stated) | inconclusive [inhibitor, partial curve, poor fit] | –
48 | Oc1ccccc1-c1nc(/C=C/c2ccccc2)nn1-c1ccccc1 | inconclusive [inhibitor, single point] | –
49 | CC(NC(=O)/C=C/c1cnc2ccccc2n1)C12CC3CC(CC(C3)C1)C2 (configuration not stated) | inconclusive [inhibitor, single point] | –
50 | CCC(C)(C)C1CCC2(CC1)NC(=O)N(CC(=O)N(C)Cc1ccc(OC(F)F)cc1)C2=O (configuration not stated) | inconclusive [inhibitor, single point] | –
51 | Cc1ccc(OCCNc2cc(N3CCN(CCO)CC3)ccc2[N+](=O)[O-])cc1C | inconclusive [inhibitor, single point] | –
52 | Cc1cccc(C(=O)N2CCN(c3ncnc4c3cnn4-c3ccccc3)CC2)c1 | active: 9.28 µM | –
53 | C=CCC1Cc2c(Br)cccc2C(CC=C)N1 (configuration not stated) | inconclusive [inhibitor, single point] | –
54 | COc1ccc(-c2cc(C(F)(F)F)nc(NCc3cccs3)n2)cc1 | inconclusive [inhibitor, single point] | –
55 | COc1cc(C(=O)OCC(=O)N2CCCCC2C)cc(NC(=O)c2cccs2)c1OC (configuration not stated) | active: 0.117 µM | –
56 | CCN(CC)C(=O)COC(=O)c1cc(-c2ccc(OC)cc2)nc2ccccc12 | – | inactive: -2.52%
57 | CCN1CCN(c2ccc(S(=O)(=O)N3CCCCC3)cc2NC(=O)CC(C)c2ccccc2)CC1 (configuration not stated) | active: 9.28 µM | –
58 | OCCC1CN(Cc2ccccc2O)CCN1CCc1ccccc1 (configuration not stated) | active: 9.28 µM | –
59 | Cn1c(CC2C(=O)Nc3ccc(Br)cc32)nc2ccccc2c1=O (configuration not stated) | inconclusive [inhibitor, single point] | –
60 | Cc1cccc(NC(=O)CSc2nc3ccccc3nc2N2CCCC2)c1C | inconclusive [inhibitor, partial curve, poor fit] | –
61 | c1cc(-c2cn(C[C@H]3CC[C@@H]([C@@H]4CC[C@H](Cn5cc(-c6ccsc6)nn5)O4)O3)nn2)cs1 | inconclusive [inhibitor, partial curve, poor fit] | –
62 | COc1ccc(/C=N/OCC(=O)NC(c2ccccc2)c2ccccc2)c(OC)c1 | inconclusive [inhibitor, single point] | –
63 | CC(C)CCn1c(=O)c2ccccc2n2c(CCC(=O)NCC3CCCO3)nnc12 (configuration not stated) | inconclusive [inhibitor, partial curve, poor fit] | –
64 | COC(=O)C1=C(C(=O)OC)[C@@H]2N(Cc3ccccc3)c3ccccc3[C@@]23C[C@@H](C(=O)OC)N(C(=O)c2ccc(Br)cc2)C3=N1 | inconclusive [inhibitor, partial curve] | –
65 | CCOc1cc(CN2CCN(c3cccc(C(F)(F)F)c3)CC2)ccc1O | inconclusive [inhibitor, partial curve] | –
66 | C[C@H](NC(=O)c1nc[nH]c1C(=O)NCCCCCN)C(=O)OC(C)(C)C | – | inactive: 10.9%
67 | O=C(N1CCN(Cc2ccccc2)CC1)C12CC3CC(CC(C3)C1)C2 | inconclusive [inhibitor, single point] | –
